Test results taken from the antibiotic and cytotoxicity screens of Wong et al. (2023).
Some of the results follow.

Each molecule was assayed on HepG2 (assay: cytotoxicity call (relative viability < 0.9)). Settings: 10 µM.

| Compound | cytotoxicity call |
| --- | --- |
| Cc1noc(C)c1S(=O)(=O)Nc1ccc2c(c1)C(=O)N([C@H](C)CO)C[C@H](C)[C@H](CN(C)CC1CCCCC1)OCCCC[C@@H](C)O2 | inactive |
| O=C(C[C@H]1CC[C@H](NC(=O)Nc2ccc3c(c2)OCO3)[C@H](CO)O1)NCCCN1CCOCC1 | inactive |
| CCCCC(=O)OCC(=O)[C@]1(O)Cc2c(O)c3c(c(O)c2[C@@H](O[C@H]2C[C@H](NC(=O)C(F)(F)F)[C@H](O)[C@H](C)O2)C1)C(=O)c1c(OC)cccc1C3=O | active |
| C[C@@H]1CN([C@H](C)CO)C(=O)c2cccc(NS(=O)(=O)c3cn(C)cn3)c2O[C@H]1CN(C)Cc1ccc2c(c1)OCO2 | inactive |
| C[C@H](CO)N1C[C@H](C)[C@H](CN(C)Cc2ccccc2)OCCCC[C@H](C)Oc2ccc(NC(=O)C3CCCCC3)cc2C1=O | inactive |
| NC(Cc1ccc(O)c(O)c1)C(=O)O (stereo not drawn) | active |
| CC(C)NC(=O)N(C)C[C@H]1OCCCC[C@H](C)Oc2ccc(NC(=O)C3CCCCC3)cc2C(=O)N([C@@H](C)CO)C[C@@H]1C | inactive |
| CSc1[nH]c(=O)[nH]c(=O)c1C#N | inactive |
| CCC[C@@H](O)C#Cc1cnc2c(c1)C(=O)N([C@H](C)CO)C[C@H](C)[C@H](CN(C)C(=O)Nc1ccc(F)cc1)O2 | inactive |
| C[C@H](NC(=O)C[C@@H]1C[C@@H]2c3cc(NC(=O)Nc4ccc(C(F)(F)F)cc4)ccc3O[C@@H]2[C@@H](CO)O1)c1ccccc1 | active |
| C[C@@H]1CCCCO[C@@H](CN(C)Cc2ccc3c(c2)OCO3)[C@H](C)CN([C@@H](C)CO)C(=O)c2cc(NC(=O)NC3CCCCC3)ccc2O1 | inactive |
| O=C(C1=C[C@H](C2CC2)C[C@H](OCc2ccc(CO)cc2)O1)N1CCN(Cc2ccc3c(c2)OCO3)CC1 | inactive |
| C[C@H]1CN([C@@H](C)CO)C(=O)Cc2cc(NS(=O)(=O)c3ccc(Cl)cc3)ccc2O[C@@H]1CN(C)S(=O)(=O)c1cn(C)cn1 | inactive |
| COc1ccc(S(=O)(=O)Nc2ccc3c(c2)C(=O)N([C@@H](C)CO)C[C@H](C)[C@H](CN(C)S(=O)(=O)c2cccs2)O3)cc1 | inactive |
| Nc1c(C(=O)O)cnc2nc(N3CCOCC3)nn12 | inactive |
| C[C@@H]1CCCCO[C@H](CN(C)C(=O)c2ccccc2)[C@@H](C)CN([C@H](C)CO)C(=O)c2cc(NC(=O)Nc3ccc4c(c3)OCO4)ccc2O1 | inactive |
| CO[C@@H](CN(C)C(=O)c1ccc2c(c1)OCO2)[C@@H](C)CN([C@@H](C)CO)S(=O)(=O)c1ccc(F)cc1 | inactive |
| C[C@H]1CCCCO[C@H](CN(C)C(=O)Nc2cccc3ccccc23)[C@@H](C)CN([C@@H](C)CO)C(=O)c2cc(NC(=O)CCC(F)(F)F)ccc2O1 | active |
| C[C@H](CO)N1C[C@H](C)[C@H](CN(C)S(=O)(=O)c2ccccc2)Oc2ncc(-c3cccc(C(=O)N(C)C)c3)cc2C1=O | inactive |
| Cc1ccc2sc(N(CCCN(C)C)C(=O)c3ccc(S(=O)(=O)N(C)Cc4ccccc4)cc3)nc2c1C | active |
| COc1ccc(-c2noc(CSc3nc4sc(C)c(C)c4c(=O)n3-c3ccccc3)n2)cc1OC | inactive |
| C[C@@H]1CN([C@H](C)CO)C(=O)c2cc(NS(=O)(=O)c3ccccc3)ccc2O[C@@H]1CN(C)Cc1ccc(Cl)c(Cl)c1 | active |
| CN(Cc1cc(Br)cc(Br)c1N)C1CCCCC1.Cl | inactive |
| C[C@@H]1CN([C@@H](C)CO)C(=O)c2cc(NS(=O)(=O)c3ccccc3)ccc2O[C@H]1CN(C)C(=O)Nc1cccc2ccccc12 | inactive |
| C[C@@H]1CN([C@H](C)CO)S(=O)(=O)c2ccc(C#CCN(C)C)cc2O[C@@H]1CN(C)S(C)(=O)=O | inactive |
| C[C@@H]1CN([C@@H](C)CO)C(=O)c2cccc(NS(=O)(=O)c3ccc(F)cc3)c2O[C@H]1CN(C)S(=O)(=O)c1cccs1 | inactive |
| C[C@H](CO)N1C[C@H](C)[C@@H](CN(C)C(=O)Nc2cccc3ccccc23)Oc2ccc(NC(=O)Nc3ccccc3)cc2CC1=O | inactive |
| C[C@H]1CN([C@@H](C)CO)C(=O)c2cc(NC(=O)Cn3cnnn3)ccc2O[C@H]1CN(C)C(=O)NC1CCCCC1 | inactive |
